“And” between values parts separate entries of the source, which are not always exact repeats. Identical values can stand only once. Screen size: about 420,000 compounds; about 64,000 (15%) were called active. Inconclusive results, whose numbers are uncertain, are shown with a selection of clear calls. Calls come from the whole dose curve; as a rule, active = well fitted inhibition curve with a large enough effect; inconclusive = small, poorly fitted or top-dose-only effect; inactive = flat fitted curve, though single readings scatter. No potency is given beside an inconclusive call; the fits are too rough.
Assay: qHTS for Inhibitors of human tyrosyl-DNA phosphodiesterase 1 (TDP1): qHTS in cells in absence of CPT; note: nearly all actives have a fitted effect of over 55% in size
Details: DT40 Tdp1-/- hTDP1 cells, no CPT, ATP luminescence, 48 h; activity change, negative = growth inhibition: at 46.2 µM (top of the series)
Method in brief: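 Growth of hTDP1-complemented DT40 Tdp1-knockout cells is measured by ATP luminescence after at least 48 hr compound exposure at 37 °C, with DMSO substituting for the 20 nM CPT used in the parallel screen.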
% is set by controls: 0 for no effect and ±100 for the full control effect; potency is the fitted concentration of half-maximal effect; tags give direction and shape of the fitted curve.

Row | Compound | Potency | activity change, negative = growth inhibition
1 | O=C(CSc1nc2c(sc3ccccc32)c(=O)n1CCCN1CCCC1)NCc1ccccc1 | inconclusive [inhibitor, partial curve, poor fit] | –
2 | CC1CC(=Cc2ccc(N)cc2)C(=O)O1 (stereo not drawn) | – | inactive: 4.13%
3 | Cc1ccc(-n2nc(CO)c(C(=O)NC(C)CCCc3ccccc3)n2)cc1 (stereo not drawn) | active: 20.6 µM | –
4 | COc1cc(SC)ccc1C(=O)N1CCCc2ccccc21 | inconclusive [inhibitor, single point] | –
5 | Cc1nc2ccc(NS(=O)(=O)c3ccc(F)c(F)c3F)cc2s1 | inconclusive [inhibitor, single point] | –
6 | COc1cc(-c2nc3ccc4ccccc4c3c3c2CCC3)ccc1O | inconclusive [inhibitor, single point] | –
7 | CC1=CC(C)(C)Nc2ccc(Cc3ccc4c(c3)C(C)=CC(C)(C)N4)cc21 | active: 20.6 µM | –
8 | O=C(Nc1ccc2c(c1)OCCO2)C(c1ccccc1)n1c(=O)c(-c2ccco2)nc2ccccc21 (stereo not drawn) | inconclusive [inhibitor, partial curve] | –
9 | CSc1nc(-c2ccco2)nn1C(=O)c1ccccc1Cl | – | inactive: -11.7%
10 | COc1cccc(C(C)NC(=S)NCc2ccc(F)cc2)c1 (stereo not drawn) | inconclusive [inhibitor, single point] | –
11 | CCOCCCNc1ncc2c(n1)CC(c1ccc(C)cc1)CC2=O (stereo not drawn) | inconclusive [inhibitor, partial curve, poor fit] | –
12 | CCOCCCNC(=O)C1CCN(c2cc(C)nc3c(-c4ccc(OC)c(OC)c4)c(C)nn23)CC1 | inconclusive [inhibitor, partial curve] | –
13 | Cc1ccc(NC(=O)COC(=O)C(NS(=O)(=O)c2ccc(Cl)cc2)C(C)O)cc1C (stereo not drawn) | inconclusive [inhibitor, single point] | –
14 | CCCOc1ccc(CN(C(=O)Cc2coc3ccc(CC)cc23)C2CCS(=O)(=O)C2)cc1 (stereo not drawn) | inconclusive [inhibitor, single point] | –
15 | CCCn1c(=O)sc2cc(NC(=O)c3ccc(OC)c(Br)c3)ccc21 | inconclusive [inhibitor, single point] | –
16 | CC(C)CC(NS(=O)(=O)c1ccc2c(c1)oc(=O)n2C)C(=O)NCc1ccccc1Cl (stereo not drawn) | – | inactive: -11.8%
17 | O=C(CN1C(=O)C2CC=CCC2C1=O)Nc1nc(-c2ccc(F)cc2)cs1 (stereo not drawn) | inconclusive [inhibitor, single point] | –
18 | CCC(=O)N1CCc2cc(S(=O)(=O)CCC(=O)N3CCN(c4ccc(Cl)cc4)CC3)ccc21 | active: 3.26 µM and active: 4.11 µM | –
19 | O=C(Nc1cccc2ccccc12)c1ccc2sc([C@H]3C[C@H](O)[C@@H](CO)O3)nc2c1 | inconclusive [inhibitor, single point] | –
20 | O=C(Nc1nc(-c2ccncc2)cs1)C1c2ccccc2Oc2ccccc21 | active: 13 µM | –
21 | CC1CN(S(=O)(=O)c2ccc(C(=O)N3c4ccccc4CC3C)cc2)CC(C)O1 (stereo not drawn) | – | inactive: -15.1%
22 | CCc1nn2c(=O)cc(COC(=O)CNC(=O)COc3ccc(C)cc3)nc2s1 | – | inactive: -9.54%
23 | COc1ccc(NC(=O)c2c(NCc3sccc3C)sc3c2CCCC3)c(OC)c1 | active: 13 µM | –

Row | Compound | Potency | activity change, negative = growth inhibition
24 | Cc1ccc(-c2noc(CCC(=O)N3CCCc4ccccc43)n2)cc1 | inconclusive [inhibitor, single point] | –
25 | CC(=O)C(Sc1nccc(-c2cccs2)n1)C(C)=O | active: 18.4 µM | –
26 | c1ccc(-c2ccnc3nc(N4CCN(c5ccccc5)CC4)nn23)cc1 | active: 20.6 µM | –
27 | CCN1CCN(Cc2ccc(NC(=O)c3cc(NC(=O)c4cc(-c5ccc(OC)cc5)n[nH]4)cc(OC)c3)cc2C(F)(F)F)CC1 | active: 4.61 µM | –
28 | CCCn1c(C(C)Nc2nc(-c3cccc(Br)c3)cs2)nc2ccccc21 (stereo not drawn) | inconclusive [inhibitor, single point] | –
29 | Cc1ccc(-c2cc(-c3ccccc3)nc(N/N=C/c3cccnc3)n2)cc1 | inconclusive [inhibitor, single point] | –
30 | CCSc1nc(NCCN(C)C)c2c3c(sc2n1)COC(C)(CC)C3 (stereo not drawn) | inconclusive [inhibitor, single point] | –
31 | Cc1ccc(NC(=O)CN2CCN(S(=O)(=O)c3ccc(C(C)C)cc3)CC2)cc1F | inconclusive [inhibitor, single point] | –
32 | CCN(CC)S(=O)(=O)c1cccc(C(=O)Nc2cc(C)nn2-c2ccccc2)c1 | inconclusive [inhibitor, partial curve] | –
33 | CCN1CCN(C(=O)c2cc3c(-c4ccc(Cl)cc4)nn(C)c3s2)CC1 | inconclusive [inhibitor, single point] | –
34 | COc1ccc(-c2nc(C#N)c(N3CCN(C(=O)c4ccco4)CC3)o2)cc1OC | inconclusive [inhibitor, single point] | –
35 | O=S(=O)(Nc1nnc(-c2ccccc2)s1)c1ccc(Cl)cc1 | active: 16.4 µM | –
36 | COc1ccc(Nc2nnc(-c3ccc(O)cc3)c3ccccc23)cc1 | inconclusive [inhibitor, single point] | –
37 | N#Cc1cccc(-c2ccc3ncnc(N4CCNCC4)c3c2)c1 | inconclusive [inhibitor, single point] | –
38 | CSCCC(C(=O)NC(C)(C)C)n1c(-c2ccccc2)nc2ccccc21 (stereo not drawn) | inconclusive [inhibitor, single point] | –
39 | C/C=C\C(=O)Nc1cccc(C2=NOC3(C2)C[C@@H](C(N)=O)N(C(=O)CC(c2ccccc2)c2ccccc2)C3)c1 (stereo partly drawn) | active: 16.4 µM | –
40 | OCCC1CN(Cc2c(O)ccc3ccccc23)CCN1CCc1ccccc1 (stereo not drawn) | inconclusive [inhibitor, partial curve, poor fit] | –
41 | CC1(Cc2ccc(F)cc2)C(=O)Nc2c(Cl)ccc(Cl)c21 (stereo not drawn) | inconclusive [inhibitor, single point] | –
42 | CCOC(=O)C1(C)C(C(=O)OC)=C(c2ccc(OC)cc2)c2ccccc2N1C(=O)OC (stereo not drawn) | active: 13 µM | –
43 | Cc1ccc(-c2nc(C#N)c(N3CCC(C)CC3)o2)cc1 | inconclusive [inhibitor, single point] | –
44 | CC(=O)c1ccc(S(=O)(=O)N2CCN(c3ccnc4cc(Cl)ccc34)CC2)cc1 | active: 7.31 µM | –
45 | O=c1c([N+](=O)[O-])cccn1Cc1ccccc1Cl | inconclusive [inhibitor, single point] | –
46 | CC(C)CC1(C)NC(=O)N(CC(=O)Nc2cccc(S(=O)(=O)N(C)c3ccccc3)c2)C1=O (stereo not drawn) | inconclusive [inhibitor, single point] | –

Row | Compound | Potency | activity change, negative = growth inhibition
47 | C[C@H](CO)N1C[C@H](C)[C@@H](CN(C)Cc2ccc(C(=O)O)cc2)Oc2c(NC(=O)C3CC3)cccc2C1=O | – | inactive: -5.87%
48 | CNc1cc(-c2ccc(OC)nc2)ncn1 | – | inactive: -20.6%
49 | COc1ccc(C(=O)C2CCCN(Cc3cnc(N4CCOCC4)s3)C2)cc1F (stereo not drawn) | – | inactive: -20%
50 | CCOc1ccccc1CNn1cnnc1SCC(=O)NC(C)(C)C | – | inactive: -1.58%
51 | Nc1nc2c(ncn2CCC(CO)CO)c(=O)[nH]1 | active: 1.68 µM | –
52 | Cc1cccc(C)c1NC(=S)N(Cc1ccccc1)Cc1cccs1 | inconclusive [inhibitor, single point] | –
53 | Cc1cccc(/C=N/NC(=O)Cc2ccc(Cl)cc2)c1O | inconclusive [inhibitor, single point] | –
54 | O=C(Nc1ccccc1)C(=O)Nc1ccc2c(c1)N(C(=O)C1CC1)CCC2 | active: 23.1 µM | –
55 | O=c1c2ccccc2n(Cc2ccccc2Cl)c(=O)n1CCc1ccccc1 | inconclusive [inhibitor, single point] | –
56 | Cn1cccc1C(=O)N1CCC2(CC1)CN(Cc1cc(C(F)(F)F)cc(C(F)(F)F)c1)C2 | inconclusive [inhibitor, single point] | –
57 | Cc1ccc(C(=O)NCC(=O)OCC(=O)N(CC(C)C)c2c(N)n(Cc3ccccc3)c(=O)[nH]c2=O)cc1C | inconclusive [inhibitor, single point] | –
58 | O=C(c1cnn(-c2cccc(F)c2)c1)c1ccccc1O | inconclusive [inhibitor, partial curve, poor fit] | –
59 | CCOC(=O)c1ccc(Nc2nc3ccc(C(=O)c4ccccc4)cc3n3c(C)nnc23)cc1 | – | inactive: -18.4%
60 | CCCN(CCC)C(=O)Cn1c(=O)n(-c2ccc(CC)cc2)c(=O)c2ccc(C(=O)NCCc3ccccc3)cc21 | active: 7.31 µM | –
61 | COc1cccc(/C=C2\SC(=S)N(CCC(=O)N3CCCCC3CCO)C2=O)c1 (stereo not drawn) | active: 18.4 µM | –
62 | O=C(c1ccc(S(=O)(=O)N2CCCCC2)cc1)N1CCN=C1SCc1cccnc1 | inconclusive [inhibitor, single point] | –
63 | CC(C)CNC(=O)c1ccccc1C(=O)NC1(C(=O)NCC(C)C)CCCC1 | – | inactive: -19.5%
64 | CCCn1c(=N)n(CC(=O)c2cccs2)c2ccccc21 | inconclusive [inhibitor, single point] | –
65 | O=[N+]([O-])c1cccc2ncccc12 | inconclusive [inhibitor, single point] | –
66 | Cc1ccc(-n2nc(C(=O)N3CCN(C)CC3)c3c4ccccc4n(C)c3c2=O)cc1 | – | inactive: -29.3%
67 | Cc1noc(C)c1C(=O)N1CCC2(CC1)CN(Cc1cc(C(F)(F)F)cc(C(F)(F)F)c1)C2 | – | inactive: -10.8%
68 | COc1ccccc1CNC(=O)CC(C)C | inconclusive [inhibitor, single point] | –

Reference: PubChem BioAssay AID686978 (National Center for Advancing Translational Sciences (NCATS), 2013)
